The other results are listed elsewhere or left out.
Tests used:
Test in all cases: glycan array binding signal (z-score within array); higher = stronger binding
Settings in all cases: glycan notation: IUPAC condensed, linker removed
[1] = target: Fuc(a1-2)Gal
Procedure, shortened: (§1)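 Negative Z-scores can be read as non-binding. The Z-score is calculated within each array and then averaged across arrays of one protein sequence at different concentrations or buffers and across linkers. Arrays, 3228 in all, were curated from the Consortium for Functional Glycomics database and kept only where the protein sequence was available.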

[2] = target: Fuc(a1-2)Gal(b1-3)GalNAc
Procedure, shortened: as §1

[3] = target: Fuc(a1-2)Gal(b1-3)GalNAc(a1-3)[Fuc(a1-2)]Gal(b1-4)Glc
Procedure, shortened: as §1

[4] = target: Fuc(a1-2)Gal(b1-3)GalNAc(a1-3)[Fuc(a1-2)]Gal(b1-4)GlcNAc
Procedure, shortened: as §1

[5] = target: Fuc(a1-2)Gal(b1-3)GalNAc(b1-3)Gal
Procedure, shortened: as §1

[6] = target: Fuc(a1-2)Gal(b1-3)GalNAc(b1-3)Gal(a1-4)Gal(b1-4)Glc
Procedure, shortened: as §1

[7] = target: Fuc(a1-2)Gal(b1-3)GalNAc(b1-4)[Neu5Ac(a2-3)]Gal(b1-4)Glc
Procedure, shortened: as §1

[8] = target: Fuc(a1-2)Gal(b1-3)GlcNAc
Procedure, shortened: as §1

[9] = target: Fuc(a1-2)Gal(b1-3)GlcNAc(b1-2)Man(a1-3)[Fuc(a1-2)Gal(b1-3)GlcNAc(b1-2)Man(a1-6)]Man(b1-4)GlcNAc(b1-4)GlcNAc
Procedure, shortened: as §1

[10] = target: Fuc(a1-2)Gal(b1-3)GlcNAc(b1-2)Man(a1-3)[Fuc(a1-2)Gal(b1-3)GlcNAc(b1-2)Man(a1-6)]Man(b1-4)GlcNAc(b1-4)[Fuc(a1-6)]GlcNAc
Procedure, shortened: as §1

[11] = target: Fuc(a1-2)Gal(b1-3)GlcNAc(b1-3)Gal(b1-4)Glc
Procedure, shortened: as §1

[12] = target: Fuc(a1-2)Gal(b1-3)GlcNAc(b1-3)GalNAc
Procedure, shortened: as §1

[13] = target: Fuc(a1-2)Gal(b1-3)GlcNAc(b1-3)[Fuc(a1-2)Gal(b1-3)GlcNAc(b1-6)]GalNAc
Procedure, shortened: as §1

[14] = target: Fuc(a1-2)Gal(b1-3)GlcNAc(b1-3)[Gal(b1-4)GlcNAc(b1-6)]Gal(b1-4)Glc
Procedure, shortened: as §1

[15] = target: Fuc(a1-2)Gal(b1-3)GlcNAc(b1-3)[Neu5Ac(a2-6)Gal(b1-4)GlcNAc(b1-6)]Gal(b1-4)Glc
Procedure, shortened: as §1

[16] = target: Fuc(a1-2)Gal(b1-3)GlcNAc6S
Procedure, shortened: as §1

[17] = target: Fuc(a1-2)Gal(b1-3)[Fuc(a1-4)]GlcNAc
Procedure, shortened: as §1

[18] = target: Fuc(a1-2)Gal(b1-3)[Fuc(a1-4)]GlcNAc(b1-2)Man(a1-3)[Fuc(a1-2)Gal(b1-3)[Fuc(a1-4)]GlcNAc(b1-2)Man(a1-3)]Man(b1-4)GlcNAc(b1-4)GlcNAc
Procedure, shortened: as §1

[19] = target: Fuc(a1-2)Gal(b1-3)[Fuc(a1-4)]GlcNAc(b1-2)Man(a1-3)[Fuc(a1-2)Gal(b1-3)[Fuc(a1-4)]GlcNAc(b1-2)Man(a1-6)]Man(b1-4)GlcNAc(b1-4)[Fuc(a1-6)]GlcNAc(b1-4)[Fuc(a1-6)]GlcNAc
Procedure, shortened: as §1

[20] = target: Fuc(a1-2)Gal(b1-3)[Fuc(a1-4)]GlcNAc(b1-3)[Fuc(a1-3)[Gal(b1-4)]GlcNAc(b1-6)]Gal(b1-4)Glc
Procedure, shortened: as §1

[21] = target: Fuc(a1-2)Gal(b1-3)[Fuc(a1-4)]GlcNAc(b1-3)[Gal(b1-4)GlcNAc(b1-6)]Gal(b1-4)Glc
Procedure, shortened: as §1

[22] = target: Fuc(a1-2)Gal(b1-4)Glc
Procedure, shortened: as §1

[23] = target: Fuc(a1-2)Gal(b1-4)Glc6S
Procedure, shortened: as §1

[24] = target: Fuc(a1-2)Gal(b1-4)GlcNAc
Procedure, shortened: as §1

[25] = target: Fuc(a1-2)Gal(b1-4)GlcNAc(b1-2)Man
Procedure, shortened: as §1

[26] = target: Fuc(a1-2)Gal(b1-4)GlcNAc(b1-2)Man(a1-3)[Fuc(a1-2)Gal(b1-4)GlcNAc(b1-2)Man(a1-6)]Man(b1-4)GlcNAc(b1-4)GlcNAc
Procedure, shortened: as §1

[27] = target: Fuc(a1-2)Gal(b1-4)GlcNAc(b1-2)Man(a1-3)[Fuc(a1-2)Gal(b1-4)GlcNAc(b1-2)Man(a1-6)]Man(b1-4)GlcNAc(b1-4)[Fuc(a1-6)]GlcNAc
Procedure, shortened: as §1

[28] = target: Fuc(a1-2)Gal(b1-4)GlcNAc(b1-2)[Fuc(a1-2)Gal(b1-4)GlcNAc(b1-4)]Man(a1-3)[Fuc(a1-2)Gal(b1-4)GlcNAc(b1-2)Man(a1-6)]Man(b1-4)GlcNAc(b1-4)GlcNAc
Procedure, shortened: as §1

[29] = target: Fuc(a1-2)Gal(b1-4)GlcNAc(b1-3)Gal(b1-4)GlcNAc
Procedure, shortened: as §1

[30] = target: Fuc(a1-2)Gal(b1-4)GlcNAc(b1-3)Gal(b1-4)GlcNAc(b1-2)Man(a1-3)[Fuc(a1-2)Gal(b1-4)GlcNAc(b1-3)Gal(b1-4)GlcNAc(b1-2)Man(a1-6)]Man(b1-4)GlcNAc(b1-4)GlcNAc
Procedure, shortened: as §1

[31] = target: Fuc(a1-2)Gal(b1-4)GlcNAc(b1-3)Gal(b1-4)GlcNAc(b1-3)Gal(b1-4)GlcNAc
Procedure, shortened: as §1

[32] = target: Fuc(a1-2)Gal(b1-4)GlcNAc(b1-3)GalNAc
Procedure, shortened: as §1

[33] = target: Fuc(a1-2)Gal(b1-4)GlcNAc(b1-3)[Fuc(a1-2)Gal(b1-4)GlcNAc(b1-6)]GalNAc
Procedure, shortened: as §1

[34] = target: Fuc(a1-2)Gal(b1-4)GlcNAc(b1-3)[Fuc(a1-3)[Gal(b1-4)]GlcNAc(b1-6)]Gal(b1-4)Glc
Procedure, shortened: as §1

[35] = target: Fuc(a1-2)Gal(b1-4)GlcNAc(b1-6)GalNAc
Procedure, shortened: as §1

[36] = target: Fuc(a1-2)Gal(b1-4)GlcNAc6S
Procedure, shortened: as §1

[37] = target: Fuc(a1-2)Gal(b1-4)[Fuc(a1-3)]GlcNAc
Procedure, shortened: as §1

[38] = target: Fuc(a1-2)Gal(b1-4)[Fuc(a1-3)]GlcNAc(b1-2)Man(a1-3)[Fuc(a1-2)Gal(b1-4)[Fuc(a1-3)]GlcNAc(b1-2)Man(a1-6)]Man(b1-4)GlcNAc(b1-4)[Fuc(a1-6)]GlcNAc
Procedure, shortened: as §1

[39] = target: Fuc(a1-2)Gal(b1-4)[Fuc(a1-3)]GlcNAc(b1-2)[Fuc(a1-2)Gal(b1-4)[Fuc(a1-3)]GlcNAc(b1-4)]Man(a1-3)[Fuc(a1-2)Gal(b1-4)[Fuc(a1-3)]GlcNAc(b1-2)Man(a1-6)]Man(b1-4)GlcNAc(b1-4)GlcNAc
Procedure, shortened: as §1

[40] = target: Fuc(a1-2)Gal(b1-4)[Fuc(a1-3)]GlcNAc(b1-3)Gal(b1-4)[Fuc(a1-3)]GlcNAc
Procedure, shortened: as §1

[41] = target: Fuc(a1-2)Gal(b1-4)[Fuc(a1-3)]GlcNAc(b1-3)Gal(b1-4)[Fuc(a1-3)]GlcNAc(b1-3)Gal(b1-4)[Fuc(a1-3)]GlcNAc
Procedure, shortened: as §1

[42] = target: Fuc(a1-2)Gal(b1-4)[Fuc(a1-3)]GlcNAc(b1-3)GalNAc
Procedure, shortened: as §1

[43] = target: Fuc(a1-2)Gal(b1-4)[Fuc(a1-3)]GlcNAc(b1-3)[Neu5Ac(a2-6)Gal(b1-4)GlcNAc(b1-6)]Gal(b1-4)Glc
Procedure, shortened: as §1

[44] = target: Fuc(a1-2)Gal3S(b1-4)GlcNAc
Procedure, shortened: as §1

[45] = target: Fuc(a1-2)Gal6S(b1-3)GlcNAc
Procedure, shortened: as §1

B1: rCnSL-proA (Clitocybe nebularis) (protein)
chain: AAFFSLVVLLALLPFGIHASALPSTELTPRVNPNLPGPNDVFVGFRGTNNIVGAIYEKDGIKDTPLNNGADAEMGPGSYITDGLFTARIFASGSAGNNPGTTATVCKIYASGVQWRGAPKGYIPVAYFGNGPTAEQRRQTYLRTLGLPGTAIRFGNLNTNPGQGPTAPRQMVVPPGPLRSLLKASCFPAADTRLPQTLHYFEKRVDWNIITAADSQTWGH
glycan array binding signal (z-score) [1]: -0.21
glycan array binding signal (z-score) [2]: -0.318
glycan array binding signal (z-score) [3]: -0.536
glycan array binding signal (z-score) [4]: -0.429
glycan array binding signal (z-score) [5]: 0.305
glycan array binding signal (z-score) [6]: -0.6
glycan array binding signal (z-score) [7]: -0.514
glycan array binding signal (z-score) [8]: -0.622
glycan array binding signal (z-score) [9]: 0.11
glycan array binding signal (z-score) [10]: 1.7
glycan array binding signal (z-score) [11]: -0.343
glycan array binding signal (z-score) [12]: -0.242
glycan array binding signal (z-score) [13]: -0.094
glycan array binding signal (z-score) [14]: 0.548
glycan array binding signal (z-score) [15]: -0.164
glycan array binding signal (z-score) [16]: -0.302
glycan array binding signal (z-score) [17]: -0.287
glycan array binding signal (z-score) [18]: 6
glycan array binding signal (z-score) [19]: 0.195
glycan array binding signal (z-score) [20]: -0.573
glycan array binding signal (z-score) [21]: -0.078
glycan array binding signal (z-score) [22]: -0.272
glycan array binding signal (z-score) [23]: -0.186
glycan array binding signal (z-score) [24]: -0.477
glycan array binding signal (z-score) [25]: -0.148
glycan array binding signal (z-score) [26]: 0.274
glycan array binding signal (z-score) [27]: 3.05
glycan array binding signal (z-score) [28]: 1.54
glycan array binding signal (z-score) [29]: -0.388
glycan array binding signal (z-score) [30]: 0.72
glycan array binding signal (z-score) [31]: -0.154
glycan array binding signal (z-score) [32]: 0.145
glycan array binding signal (z-score) [33]: -0.121
glycan array binding signal (z-score) [34]: -0.643
glycan array binding signal (z-score) [35]: -0.359
glycan array binding signal (z-score) [36]: -0.402
glycan array binding signal (z-score) [37]: -0.453
glycan array binding signal (z-score) [38]: 0.746
glycan array binding signal (z-score) [39]: 0.882
glycan array binding signal (z-score) [40]: -0.674
glycan array binding signal (z-score) [41]: -0.409
glycan array binding signal (z-score) [42]: -0.242
glycan array binding signal (z-score) [43]: -0.085
glycan array binding signal (z-score) [44]: -0.453
glycan array binding signal (z-score) [45]: -0.527

Reference: the supplement of paper PMC8728848
